From PubChem BioAssay AID686970 (National Center for Advancing Translational Sciences (NCATS), 2013)
About 6,000 (1.7%) of roughly 360,000 compounds were called active. Inconclusive results, whose numbers are uncertain, are shown with a selection of clear calls. Calls come from the whole dose curve; as a rule, active = well fitted cell-killing curve with a large enough effect; inconclusive = small, poorly fitted or top-dose-only effect, or effect the other way; inactive = flat fitted curve, though single readings scatter. No potency is given beside an inconclusive call; the fits are too rough.

Assay: qHTS for induction of synthetic lethality in tumor cells producing 2HG: qHTS for the HT-1080-NT fibrosarcoma cell line;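 note: NT is the 2HG producing partner of a matched IDH1 knockdown line; nearly all actives have a fitted effect of over 55% in size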
Conditions: HT-1080-NT fibrosarcoma viability, CellTiter-Glo ATP luminescence, 48 h; series mostly up to 46.1 µM
Procedure, shortened: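 Viability by CellTiter-Glo luminescence after 48 h compound exposure at 37C of HT-1080-NT cells (750/well, RPMI, 5% FBS). % activity scaled between DMSO wells and medium-only wells, then curve-fitted and categorized by curve class.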
Potency is the fitted concentration of half-maximal effect; tags give direction and shape of the fitted curve.

Q: With `O=C(NNC(=S)Nc1ccc(Cl)c(Cl)c1)c1ccccn1` as the molecule, how does the Potency read?
A: The Potency was “inactive”.

Q: For `Cn1cc(/C=C/c2cc[n+](C)cc2)c2cc(F)ccc21`, which Potency is on record?
A: Its Potency is inconclusive [cytotoxic, partial curve].

Q: For `O=C(CSCSCC(=O)Nc1ccc2c(c1)OCO2)Nc1ccc2c(c1)OCO2`, which Potency is on record?
A: Its Potency is inconclusive [cytotoxic, partial curve].

Q: Which Potency does the source give for `O=C(CSc1ccc(F)cc1)Nc1ccc2c(c1)C(=O)NC2=O` here?
A: The Potency was “inactive”.

Q: Which Potency does the source give for `CCOC(=O)Cn1nc(Cc2ccccc2)c2ccccc2c1=O` here?
A: The Potency was “inactive”.

Q: For `CCCn1c(NC(=O)c2ccco2)nc2ccccc21`, which Potency is on record?
A: Its Potency is inconclusive [cytotoxic, single point].

Q: Which Potency does the source give for `O=C1CC(=C2c3ccccc3-c3ccccc32)C(=O)N1CCCCN1CCN(c2ccccc2)CC1` here?
A: Its Potency is inconclusive [cytotoxic, partial curve].

Q: For `Cc1ccc2c(Cl)c(C(=O)N/N=C/c3cccn3C)sc2c1`, which Potency is on record?
A: The Potency was inconclusive [cytotoxic, single point].

Q: For `Cc1nc2c3cc(F)ccc3n(CCN3CCCCC3)c2s1`, which Potency is on record?
A: Its Potency is active: 20.6 µM.

Q: With `O=c1[nH]nc(Cc2ccc([N+](=O)[O-])cc2)c2ccccc12` as the molecule, how does the Potency read?
A: Its Potency is “inactive”.

Q: For `CCOC(=O)C1(CCOc2ccccc2)CCN(Cc2ccc(OC)c(COC)c2)CC1`, which Potency is on record?
A: Its Potency is inconclusive [cytotoxic, partial curve].

Q: With `CC/C(=N/NC(=O)c1ccccc1O)c1c(C)[nH]n(-c2ccccc2)c1=O` as the molecule, how does the Potency read?
A: Its Potency is inconclusive [cytotoxic, partial curve].

Q: Which Potency does the source give for `Cc1ccc(-n2nnnc2C(Cl)c2nnnn2-c2ccc(C)cc2)cc1` here?
A: The Potency was inconclusive [cytotoxic, single point].

Q: Which Potency does the source give for `Cc1cccc(C(=O)N2CCC(=O)N([C@H](COCc3cccc(Cl)c3)Cc3ccccc3)CC2)c1` here?
A: Its Potency is inconclusive [cytotoxic, single point].

Q: With `COc1ccc2c(c1)c(/C=N/Nc1nc3ccccc3[nH]1)c(C)n2C` as the molecule, how does the Potency read?
A: The Potency was inconclusive [cytotoxic, single point].

Q: With `CCCNC(=O)NC(=O)COC(=O)CNS(=O)(=O)/C=C/c1ccccc1` as the molecule, how does the Potency read?
A: The Potency was “inactive”.

Q: For `CC(=O)/C=C/c1ccc2ccccc2n1`, which Potency is on record?
A: The Potency was inconclusive [cytotoxic, single point].

Q: Which Potency does the source give for `CCO/C([O-])=N/c1c[n+](N2CCOCC2)no1` here?
A: The Potency was inconclusive [rising, partial curve, poor fit].

Q: With `O=S(=O)(/N=S1/CC=CCN1S(=O)(=O)c1ccccc1)c1ccccc1` (configuration not stated) as the molecule, how does the Potency read?
A: Its Potency is inconclusive [cytotoxic, single point].

Q: With `CN(C)c1ccc(CC(=O)N2CCCCC2c2cc(C(=O)Nc3ccccc3Cl)no2)cc1` (configuration not stated) as the molecule, how does the Potency read?
A: Its Potency is active: 32.6 µM.

Q: With `O=C(/C=C/c1ccccc1)NC(NC(=S)Nc1cccc(Cl)c1)C(Cl)(Cl)Cl` (configuration not stated) as the molecule, how does the Potency read?
A: The Potency was inconclusive [cytotoxic, single point].

Q: Which Potency does the source give for `CNc1ccc(-c2cc(OC)ccc2OC)cn1` here?
A: Its Potency is inconclusive [rising, single point].

Q: With `CCN(CC)S(=O)(=O)c1ccc(Oc2ccc(S(=O)(=O)N(CC)CC)cc2)cc1` as the molecule, how does the Potency read?
A: Its Potency is inconclusive [cytotoxic, full curve].

Q: For `Nc1nnnn1/N=C/C(Br)=C/c1ccccc1`, which Potency is on record?
A: Its Potency is “inactive”.

Q: For `CCOc1cc(C)ccc1OCc1nnc(SCC(=O)c2cccc([N+](=O)[O-])c2)n1C`, which Potency is on record?
A: Its Potency is inconclusive [cytotoxic, full curve, poor fit].

Q: With `CCOC(=O)c1nn(-c2ccc(C)cc2)c(=O)cc1OCC(=O)N1CCN(c2ccccc2)CC1` as the molecule, how does the Potency read?
A: The Potency was “inactive”.

Q: Which Potency does the source give for `Cc1ccc(S(=O)(=O)Nc2cc(C(=O)NCCN(C)C)ccc2N2CCCCC2)cc1` here?
A: The Potency was inconclusive [cytotoxic, single point].

Q: With `N#CC1=C(N)NC(SCc2ccccc2)=C(C#N)C12CCCC2` as the molecule, how does the Potency read?
A: Its Potency is “inactive”.

Q: For `COc1ccc(CCNc2ncnc3c2[nH]c2cc(OC)c(OC)cc23)cc1OC`, which Potency is on record?
A: Its Potency is inconclusive [cytotoxic, single point].

Q: With `CC(C)(C)c1cc(-c2nc(N)nc(N)n2)c(O)c(C(C)(C)C)c1` as the molecule, how does the Potency read?
A: Its Potency is inconclusive [cytotoxic, single point].

Q: With `CCn1c([N+](=O)[O-])nc2c1c(=O)[nH]c(=O)n2C` as the molecule, how does the Potency read?
A: The Potency was active: 18.4 µM.

Q: With `Cc1nn(C(C)C(=O)NC2CCCCC2)c(=O)c2nn(-c3ccccc3)c(C)c12` (configuration not stated) as the molecule, how does the Potency read?
A: The Potency was “inactive”.

Q: With `Cc1ccc(/C=C/C(=O)Nc2ccc(Oc3ccccc3)cc2)o1` as the molecule, how does the Potency read?
A: The Potency was inconclusive [cytotoxic, single point].

Q: Which Potency does the source give for `COc1cc(C(=O)Nc2ccc3c(c2)N(C(=O)CCN(C)C)c2ccccc2CC3)cc(OC)c1OC` here?
A: Its Potency is inconclusive [cytotoxic, single point].

Q: Which Potency does the source give for `O=C(CCNS(=O)(=O)c1ccc(Br)s1)NCc1ccc(F)cc1` here?
A: Its Potency is “inactive”.

Q: Which Potency does the source give for `CCc1ccc(NC(=O)N(CCN2CCOCC2)Cc2ccc3c(c2)CCCN3CC)cc1` here?
A: Its Potency is “inactive”.

Q: With `COc1cc(/C=N/NC(=O)CSc2n[nH]c(=O)[nH]c2=O)cc(OC)c1O` as the molecule, how does the Potency read?
A: Its Potency is “inactive”.

Q: Which Potency does the source give for `Cc1ccc(O)c(C(=O)C=Cc2ccccc2)c1` here?
A: The Potency was inconclusive [cytotoxic, single point].

Q: Which Potency does the source give for `O=C1NC(=Nc2ccccc2)S/C1=C\C=C\c1ccco1` here?
A: The Potency was inconclusive [cytotoxic, single point].

Q: For `Cc1ccc(S(=O)(=O)NNC(=O)c2cc(C)cs2)cc1`, which Potency is on record?
A: The Potency was “inactive”.

Q: Which Potency does the source give for `C/C(=N\NC(=O)Nc1ccccc1)c1ccccc1` here?
A: Its Potency is inconclusive [rising, full curve, poor fit].

Q: For `COc1ccccc1CNC(=O)c1c(-c2ccccc2Cl)noc1C`, which Potency is on record?
A: The Potency was “inactive”.

Q: With `CC1=CC(C)(C)Nc2ccc(OC(=O)c3cccnc3)cc21` as the molecule, how does the Potency read?
A: Its Potency is inconclusive [cytotoxic, single point].

Q: Which Potency does the source give for `COc1ccccc1CCn1cnc(-c2ccc(Br)cc2)c1C(C)C` here?
A: Its Potency is active: 23.1 µM.

Q: Which Potency does the source give for `CC(=O)c1ccccn1` here?
A: The Potency was inconclusive [rising, single point].

Q: With `Cc1ccc(C)c(NC(=S)N2CCC(c3nc4ccccc4s3)CC2)c1` as the molecule, how does the Potency read?
A: The Potency was inconclusive [cytotoxic, single point].

Q: Which Potency does the source give for `Cc1c(C#N)c2ccccc2n1CCOc1ccccc1F` here?
A: The Potency was inconclusive [cytotoxic, single point].
